Patent US20210238308A1 (Chugai, published 2021)

T1: PRYSPRY domain of human TRIM21 with N-terminal 6xHis tag (human)
T1 construct: Expressed in E. coli; also called hTRIM21; human TRIM21.PRYSPRY
T1 chain: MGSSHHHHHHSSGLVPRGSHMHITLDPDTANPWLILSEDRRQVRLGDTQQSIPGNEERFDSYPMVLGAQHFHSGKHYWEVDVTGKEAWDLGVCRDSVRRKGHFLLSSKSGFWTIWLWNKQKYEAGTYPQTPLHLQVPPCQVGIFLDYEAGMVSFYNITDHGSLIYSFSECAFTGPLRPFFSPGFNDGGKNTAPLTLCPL

T2: PRYSPRY domain of mouse TRIM21 with N-terminal 6xHis tag (mouse)
T2 construct: Expressed in E. coli; also called mTRIM21; mouse TRIM21.PRYSPRY
T2 chain: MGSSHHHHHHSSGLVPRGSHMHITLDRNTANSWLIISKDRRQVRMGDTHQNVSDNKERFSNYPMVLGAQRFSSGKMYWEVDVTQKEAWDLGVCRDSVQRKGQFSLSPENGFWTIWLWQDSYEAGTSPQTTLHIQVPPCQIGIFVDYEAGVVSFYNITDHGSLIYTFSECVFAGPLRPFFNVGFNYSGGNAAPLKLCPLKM

B1: MRAH-G1d/MRAL-KT0 L314K (antibody, human IgG1, kappa)
heavy: QVQLQESGPGLVRPSQTLSLTCTVSGYSITSDHAWSWVRQPPGRGLEWIGYISYSGITTYNPSLKSRVTMLRDTSKNQFSLRLSSVTAADTAVYYCARSLARTTAMDYWGQGSLVTVSS[human IgG1 constant region with L314K (EU numbers) omitted here]
light: DIQMTQSPSSLSASVGDRVTITCRASQDISSYLNWYQQKPGKAPKLLIYYTSRLHSGVPSRFSGSGSGTDFTFTISSLQPEDIATYYCQQGNTLPYTFGQGTKVEIKRTVAAPSVFIFPPSDEQLKSGTASVVCLLNNFYPREAKVQWKVDNALQSGNSQESVTEQDSKDSTYSLSSTLTLSKADYEKHKVYACEVTHQGLSSPVTKSFNRGEC
notes: copies: 2 + 2
B2: MRAH-G1d/MRAL-KT0 L314N (antibody, human IgG1, kappa)
heavy: QVQLQESGPGLVRPSQTLSLTCTVSGYSITSDHAWSWVRQPPGRGLEWIGYISYSGITTYNPSLKSRVTMLRDTSKNQFSLRLSSVTAADTAVYYCARSLARTTAMDYWGQGSLVTVSS[human IgG1 constant region with L314N (EU numbers) omitted here]
light: B1 light
notes: copies: 2 + 2
B3: MRAH-G1d/MRAL-KT0 L314P (antibody, human IgG1, kappa)
heavy: QVQLQESGPGLVRPSQTLSLTCTVSGYSITSDHAWSWVRQPPGRGLEWIGYISYSGITTYNPSLKSRVTMLRDTSKNQFSLRLSSVTAADTAVYYCARSLARTTAMDYWGQGSLVTVSS[human IgG1 constant region with L314P (EU numbers) omitted here]
light: B1 light
notes: copies: 2 + 2
B4: MRAH-G1d/MRAL-KT0 L314R (antibody, human IgG1, kappa)
heavy: QVQLQESGPGLVRPSQTLSLTCTVSGYSITSDHAWSWVRQPPGRGLEWIGYISYSGITTYNPSLKSRVTMLRDTSKNQFSLRLSSVTAADTAVYYCARSLARTTAMDYWGQGSLVTVSS[human IgG1 constant region with L314R (EU numbers) omitted here]
light: B1 light
notes: copies: 2 + 2
B5: MRAH-G1d/MRAL-KT0 L314S (antibody, human IgG1, kappa)
heavy: QVQLQESGPGLVRPSQTLSLTCTVSGYSITSDHAWSWVRQPPGRGLEWIGYISYSGITTYNPSLKSRVTMLRDTSKNQFSLRLSSVTAADTAVYYCARSLARTTAMDYWGQGSLVTVSS[human IgG1 constant region with L314S (EU numbers) omitted here]
light: B1 light
notes: copies: 2 + 2
B6: MRAH-G1d/MRAL-KT0 L314T (antibody, human IgG1, kappa)
heavy: QVQLQESGPGLVRPSQTLSLTCTVSGYSITSDHAWSWVRQPPGRGLEWIGYISYSGITTYNPSLKSRVTMLRDTSKNQFSLRLSSVTAADTAVYYCARSLARTTAMDYWGQGSLVTVSS[human IgG1 constant region with L314T (EU numbers) omitted here]
light: B1 light
notes: copies: 2 + 2
B7: MRAH-G1d/MRAL-KT0 L314V (antibody, human IgG1, kappa)
heavy: QVQLQESGPGLVRPSQTLSLTCTVSGYSITSDHAWSWVRQPPGRGLEWIGYISYSGITTYNPSLKSRVTMLRDTSKNQFSLRLSSVTAADTAVYYCARSLARTTAMDYWGQGSLVTVSS[human IgG1 constant region with L314V (EU numbers) omitted here]
light: B1 light
notes: copies: 2 + 2
B8: MRAH-G1d/MRAL-KT0 L314W (antibody, human IgG1, kappa)
heavy: QVQLQESGPGLVRPSQTLSLTCTVSGYSITSDHAWSWVRQPPGRGLEWIGYISYSGITTYNPSLKSRVTMLRDTSKNQFSLRLSSVTAADTAVYYCARSLARTTAMDYWGQGSLVTVSS[human IgG1 constant region with L314W (EU numbers) omitted here]
light: B1 light
notes: copies: 2 + 2
B9: MRAH-G1d/MRAL-KT0 L314Y (antibody, human IgG1, kappa)
heavy: QVQLQESGPGLVRPSQTLSLTCTVSGYSITSDHAWSWVRQPPGRGLEWIGYISYSGITTYNPSLKSRVTMLRDTSKNQFSLRLSSVTAADTAVYYCARSLARTTAMDYWGQGSLVTVSS[human IgG1 constant region with L314Y (EU numbers) omitted here]
light: B1 light
notes: copies: 2 + 2
B10: MRAH-G1d/MRAL-KT0 L432D (antibody, human IgG1, kappa)
heavy: QVQLQESGPGLVRPSQTLSLTCTVSGYSITSDHAWSWVRQPPGRGLEWIGYISYSGITTYNPSLKSRVTMLRDTSKNQFSLRLSSVTAADTAVYYCARSLARTTAMDYWGQGSLVTVSS[human IgG1 constant region with L432D (EU numbers) omitted here]
light: B1 light
notes: copies: 2 + 2
B11: MRAH-G1d/MRAL-KT0 L432E (antibody, human IgG1, kappa)
heavy: QVQLQESGPGLVRPSQTLSLTCTVSGYSITSDHAWSWVRQPPGRGLEWIGYISYSGITTYNPSLKSRVTMLRDTSKNQFSLRLSSVTAADTAVYYCARSLARTTAMDYWGQGSLVTVSS[human IgG1 constant region with L432E (EU numbers) omitted here]
light: B1 light
notes: copies: 2 + 2
B12: MRAH-G1d/MRAL-KT0 L432F (antibody, human IgG1, kappa)
heavy: QVQLQESGPGLVRPSQTLSLTCTVSGYSITSDHAWSWVRQPPGRGLEWIGYISYSGITTYNPSLKSRVTMLRDTSKNQFSLRLSSVTAADTAVYYCARSLARTTAMDYWGQGSLVTVSS[human IgG1 constant region with L432F (EU numbers) omitted here]
light: B1 light
notes: copies: 2 + 2
B13: MRAH-G1d/MRAL-KT0 L432G (antibody, human IgG1, kappa)
heavy: QVQLQESGPGLVRPSQTLSLTCTVSGYSITSDHAWSWVRQPPGRGLEWIGYISYSGITTYNPSLKSRVTMLRDTSKNQFSLRLSSVTAADTAVYYCARSLARTTAMDYWGQGSLVTVSS[human IgG1 constant region with L432G (EU numbers) omitted here]
light: B1 light
notes: copies: 2 + 2
B14: MRAH-G1d/MRAL-KT0 L432H (antibody, human IgG1, kappa)
heavy: QVQLQESGPGLVRPSQTLSLTCTVSGYSITSDHAWSWVRQPPGRGLEWIGYISYSGITTYNPSLKSRVTMLRDTSKNQFSLRLSSVTAADTAVYYCARSLARTTAMDYWGQGSLVTVSS[human IgG1 constant region with L432H (EU numbers) omitted here]
light: B1 light
notes: copies: 2 + 2

Biological target: T1, PRYSPRY domain of human TRIM21 with …
Assay: SPR, Protein L capture

B1: no binding (tested: 100 nM).
B2: no binding (tested: 100 nM).

Going from B3 to B4, the “hTRIM21 binding level ratio (variant/control antibody)” value falls from 0.989 to 0.409.

Going from B5 to B6, the “hTRIM21 binding level ratio (variant/control antibody)” value rises from 0.98 to 1.08.

Going from B7 to B8, the “hTRIM21 binding level ratio (variant/control antibody)” value falls from 1.03 to 0.777.

Going from B9 to B10, the “hTRIM21 binding level ratio (variant/control antibody)” value falls from 1.11 to 0.397.

Compared with B11, B12 is lower in “hTRIM21 binding level ratio (variant/control antibody)” value: 0.996 for the first, 0.765 for the second.

Compared with B13, B14 is higher in “hTRIM21 binding level ratio (variant/control antibody)” value: 0.245 for the first, 0.864 for the second.

Biological target: T2, PRYSPRY domain of mouse TRIM21 with …
Assay: SPR, Protein L capture

B1: no binding (tested: 100 nM).
B2: no binding (tested: 100 nM).

Compared with B3, B4 is higher in “mTRIM21 binding level ratio (variant/control antibody)” value: 2.05 for the first, 2.37 for the second.

First: B5
Second: B6
The “mTRIM21 binding level ratio (variant/control antibody)” value of the first is higher: 2.09 for the first, 2 for the second.

Compared with B7, B8 is higher in “mTRIM21 binding level ratio (variant/control antibody)” value: 2.36 for the first, 3.01 for the second.

First: B9
Second: B10
The “mTRIM21 binding level ratio (variant/control antibody)” value of the first is higher: 3.13 for the first, 0.479 for the second.

Compared with B11, B12 is lower in “mTRIM21 binding level ratio (variant/control antibody)” value: 2.23 for the first, 1.02 for the second.

B13 and B14 are the same in “mTRIM21 binding level ratio (variant/control antibody)” value: 1.81 for the first, 1.81 for the second.

What follows are binders tested against T3, human FcRn (human, UniProt P55899 part only; P61769 part only, limits assumed) (assay: SPR, Protein L capture).
T3 construct: also called hFcRn
T3 sequence (P55899 24-290 limits assumed, form in doubt, chain 1 of 2): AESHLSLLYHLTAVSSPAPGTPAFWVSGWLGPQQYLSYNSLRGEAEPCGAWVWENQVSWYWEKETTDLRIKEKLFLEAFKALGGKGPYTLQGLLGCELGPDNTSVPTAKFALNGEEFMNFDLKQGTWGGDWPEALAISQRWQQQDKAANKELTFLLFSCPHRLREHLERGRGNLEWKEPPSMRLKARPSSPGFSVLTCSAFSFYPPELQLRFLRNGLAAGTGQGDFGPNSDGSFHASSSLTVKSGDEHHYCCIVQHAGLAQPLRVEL
T3 sequence (P61769 21-119 limits assumed, form in doubt, chain 2 of 2, further chain): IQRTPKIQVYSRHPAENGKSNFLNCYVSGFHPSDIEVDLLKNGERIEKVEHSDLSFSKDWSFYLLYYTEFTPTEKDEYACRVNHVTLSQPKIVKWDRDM

Compared with B1, B2 is lower in “hFcRn binding level ratio (variant/control antibody)” value: 0.01 for the first, 0 for the second.

Going from B3 to B4, the “hFcRn binding level ratio (variant/control antibody)” value falls from 0.02 to 0.01.

First: B5
Second: B6
The “hFcRn binding level ratio (variant/control antibody)” value of the first is higher: 0.44 for the first, 0.35 for the second.

First: B7
Second: B8
The “hFcRn binding level ratio (variant/control antibody)” value of the first is lower: 0.01 for the first, 0.27 for the second.

Going from B9 to B10, the “hFcRn binding level ratio (variant/control antibody)” value rises from 0.02 to 0.3.

Compared with B11, B12 is lower in “hFcRn binding level ratio (variant/control antibody)” value: 0.91 for the first, 0.65 for the second.

First: B13
Second: B14
The “hFcRn binding level ratio (variant/control antibody)” value of the first is higher: 0.56 for the first, 0.05 for the second.
